Measured values taken from patent US20170173134A1 (priority 2011, published 2017).
Where “and” joins values, the source holds several entries; their conditions need not be identical. Identical values can stand only once. Like-named read-outs stand apart in the source and are kept apart here.

Assays:
[1] = system: 53 tumor cell cultures representing 8 distinct tumor types and leukemia; conditions: cited from earlier work
HPV (HPV 11, HPV 16/18) = assay: Table 8-B: HPV detection and viral typing by PCR (Kit Amplicor); parameters: species or system human; conditions: in vivo
Method: The patients underwent routine examinations before the clinical trial for evaluation of the degree of dysplasia (Papanicolaou test) and cervical smears were taken for human papilloma virus (HPV) testing and typing.
Periodicity: Collection of cervical smear for the test and classification of dysplasia and HPV were performed in the pretreatment period (basal) and 6 months after the end of the clinical trial.

[2] = system: MNU-induced cancerous lesions of the urinary bladder; format: in vivo, Fischer 344 rats; conditions: n = 10
cervical dysplasia = assay: Table 8-B: clinical trial in HPV-related cervical dysplasia, Papanicolaou classification; format: in vivo, human
Source text: All patients had previous history of routine surgical procedures for removal of the damaged tissue (electrocauterization) in the months prior to the clinical trial, with recurrence of dysplasia and infection in all the cases. The patients underwent routine examinations before the clinical trial for evaluation of the degree of dysplasia (Papanicolaou test) and cervical smears were taken for human papilloma virus (HPV) testing and typing. […] Periodicity: Collection of cervical smear for the test and classification of dysplasia and HPV were performed in the pretreatment period (basal) and 6 months after the end of the clinical trial. Characterization of the sample: Patients previously treated with surgery (electrocauterization) and showing signs of recurrent cervical dysplasia, classified by the Papanicolaou test as moderate to severe dysplasias, upon admission to the clinical trial (Table 8-A). Clinical trial design: All patients underwent the same surgical procedure, that is, electrocauterization for removal of the abnormal tissue (dysplasia). […] Follow-up: All patients were followed monthly through clinical examinations and colposcopy.

[3] = system: MNU-induced urinary bladder carcinoma; format: in vivo, rats
[4] = n = 10
[5] = system: bladder cancer induced by MNU; format: in vivo, Fischer rats
[6] = system: MNU-induced cancerous lesions of the urinary bladder; assay: Table 6-B: histological assessment, saline versus Poloxamer formulation; format: in vivo, Fischer 344 rats
Method: Fifty (50) Fischer 344 rats, aged 7 weeks, weighing in average 150 grams were used in this experiment.
All the animals (Fischer 344 rats), except for the untreated control group (Table 6B-Group A), were subjected to applications of 1.5 mg/kg of n-methyl-n-nitrosourea (MNU) dissolved in 0.30 ml of sodium citrate, intravesically, using a catheter (for insertion in the bladder) for 7 weeks for bladder cancer induction. After administration of MNU the animals were divided into 5 groups of 10 animals each.
One group (untreated control) of 10 animals was given only saline solution (NaCl 0.9%) also intravesically and for an equal period (Table 6B-Group A).
All the compounds were intravesically inoculated, with a catheter (for insertion into the bladder) for this purpose, for 6 consecutive weeks, for comparative assessment in the treatment of MNU-induced cancerous lesions.

[7] = system: MNU-induced urinary bladder carcinoma; assay: Second experiment (Table 5): histological assessment, MNU-induced bladder cancer; format: in vivo, rats
Method: The therapeutic effect in urinary bladder cancer in animals was assessed by histological evaluation of the tissues. The criteria for assessing normality of the tissues examined for all the experiments using the same animal model, that is, the experiments reported in Table 4, Table 5, Table 6-A, Table 6-B, Table 6-C and Table 6-D are: normal tissue, flat hyperplasia, papillary hyperplasia.
Flat hyperplasia and papillary hyperplasia are reactive changes of an inflammatory nature, though benign, and their occurrence in the experiments for assessment of new drugs in animals affected with cancer, indicates a reversal of the cancer process to non-cancerous stages.
Metaplasia is defined as the replacement of a normal functional tissue with another tissue with different structure, with loss of function, and, thus, is considered a form of premalignant lesion.
[…] animals (n=50) were used in the experiment. The therapeutic effect was assessed through histological assessment of tissues, and the toxicological effect of the compounds, through assessment of the presence or absence of urinary bleeding also called hematuria.
All the animals in the experiment were subjected to intravesical applications of 1.5 mg/kg of n-methyl-n-nitrosourea (MNU) dissolved in 0.30 mL of sodium citrate, using a catheter, for 7 weeks. One group (control) of 10 animals was given only saline solution ([…]), also intravesically and for an equal period.
The purpose of using n-methyl-n-nitrosourea (MNU) was to experimentally induce immunosuppression and subsequently producing urinary bladder carcinoma. After treatment with MNU, the animals were divided into 05 groups of 10 animals each. […]
For the histological examinations, sections (2 μm) of the tissue of the urinary bladder were cut using microtome Zeiss, mounted on microscope slides, and stained with hematoxylin-eosin (HE), for subsequent pathology assessment, quantification of cellular changes and comparison between control and treatment groups.

[8] = system: MNU-induced bladder cancer; format: in vivo, female Fischer 344 rats
[9] = n = 10; remark: listed apart in the source
[10] = 10 mg/kg intravesical, 14 weeks; n = 10
[11] = Table 5 experiment, intravesical

## proteic aggregate of ammonium and magnesium phospholinoleate-palmitoleate anhydride [immunomodulator]
[1]
  Cytotoxicity: did not display cytotoxicity
HPV (HPV 11, HPV 16/18)
  Number of patients without dysplasia, HPV type associated HPV 11: 3
  Number of patients without dysplasia, HPV type associated HPV 16/18: 2
  patients who still had HPV: 5
[2]
  Flat hyperplasia, animals: 4(40%)
  Normal, animals: 3(30%)
  Papillary hyperplasia, animals: 3(30%)
Cervical dysplasia; 180 days after the end, electrocauterization + topical cream 20% daily intrauterine for 2 weeks, 25 patients
  Number of patients without dysplasia (mild, moderate, severe) and without HPV type associated: 20
Cervical dysplasia; associated to surgery (electrocauterization), 180 days after the end of the clinical trial
  recurrence rate of cervical dysplasia: 0%
[3]; n = 10
  Flat hyperplasia, animals: 06 (60%)
[3]; rat, in vivo
  High-grade intra-epithelial carcinoma (carcinoma in situ-Tis), animals: 01 (10%)
  Low grade Intraepithelial neoplasia, animals: 04 (40%)
  Papillary carcinoma (Ta), animals: 01 (10%)
  Papillary hyperplasia, animals: 02 (10%)
  Squamous metaplasia, animals: 02 (20%)
  animals with positive result / positive outcome (histopathology): 80%
N = 10
  Toxicology: (Hematuria): Positive
  Toxicology: (Hematuria), % of animals: (100%)
N = 10
  Toxicology: (Hematuria): Negative
  Toxicology: (Hematuria), % of animals: (0%)
[4]
  Toxicology: Presence of hematuria: Negative
  Toxicology: Presence of hematuria, % of animals: (0%)
[5]; n = 6
  Flat Hyperplasia, number of animals: 2 and 1
  Low-grade Intraurothelial Neoplasia, number of animals: 1
  Normal, number of animals: 2
  Papillary hyperplasia, number of animals: 2
[5]; rat, in vivo
  recurrent or refractory / malignant lesions: 17%
  responders (absence of malignant lesions): 83%
[6]; even using Poloxamers as carriers
  lowest concentration experimentally obtained to produce therapeutic effects with topical use: 1 mg/mL
[6]; topical use 10 mg/kg in saline, Group C Table 6-B
  tumor reversion: 90%
[7]; MNU-induced bladder cancer, 10 mg/kg intravesical (topical application), 14 weeks, n = 10
  Flat hyperplasia, animals: 05 (50%) n (%)
[7]; [11]
  animals that had hyperplasia: 70%
  therapeutic effectiveness / efficacy: ~100%
[8]; n = 10
  Flat Hyperplasia, number of animals: 4
  Normal, number of animals: 4
  Papillary hyperplasia, number of animals: 2
[8]; rat, in vivo
  success rate / responders: 100%
[9]
  Toxicology: (Hematuria), presence: No
[10]
  Toxicology: (Hematuria): Negative
  Toxicology: (Hematuria), % of animals: (0%)
